Measured values published in the supplement of paper PMC3334620.
In all, about 33,000 sequences were measured (“E-score (-0.5 to 0.5)”: median about -0.012, highest 2% from about 0.27 on). Some of the results follow.

Target: T1, Vhr1 (UniProt P40522)
T1 sequence: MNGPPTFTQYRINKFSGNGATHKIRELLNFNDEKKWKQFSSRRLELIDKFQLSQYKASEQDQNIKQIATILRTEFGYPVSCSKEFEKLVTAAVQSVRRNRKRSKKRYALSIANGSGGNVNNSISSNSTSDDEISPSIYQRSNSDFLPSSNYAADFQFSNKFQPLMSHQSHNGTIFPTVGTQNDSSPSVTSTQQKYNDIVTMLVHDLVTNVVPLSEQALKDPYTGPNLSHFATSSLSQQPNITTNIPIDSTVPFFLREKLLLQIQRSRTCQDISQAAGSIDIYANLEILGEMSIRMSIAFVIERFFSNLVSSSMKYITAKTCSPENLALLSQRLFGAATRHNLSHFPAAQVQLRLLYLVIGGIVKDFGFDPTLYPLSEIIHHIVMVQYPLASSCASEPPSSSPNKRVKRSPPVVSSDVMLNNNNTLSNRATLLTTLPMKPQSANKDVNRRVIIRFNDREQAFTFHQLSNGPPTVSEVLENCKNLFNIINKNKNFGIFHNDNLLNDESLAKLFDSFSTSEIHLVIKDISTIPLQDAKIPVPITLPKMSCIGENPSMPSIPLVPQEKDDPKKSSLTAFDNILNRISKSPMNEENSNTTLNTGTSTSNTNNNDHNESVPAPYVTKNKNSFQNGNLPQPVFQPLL
Assay: PBM E-score (8-mer binding enrichment) (E-score (-0.5 to 0.5)); higher = stronger / more preferred TF binding; most listed sequences are background and not binding sites
Conditions: protein concentration: 200 nM; construct: GST-full length
Method: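 Universal 'all 10-mer' protein binding microarrays (Agilent AMADID 015681) probed with GST-tagged S. cerevisiae TFs (full-length or DBD) made by in vitro transcription/translation (PURExpress), about 100-200 nM. Bound TF was detected with fluorescent anti-GST. Each ungapped 8-mer (which stands for itself and its reverse complement) is scored by the PBM enrichment score (E-score), a modified Wilcoxon-Mann-Whitney statistic from -0.5 to +0.5, computed with the Universal PBM Analysis Suite. Scale: above 0.35 generally sequence-specific binding.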

Sequence | PBM E-score
AAGCGGGT | 0.0277
CCTTAAGA | -0.224
GAACAGAA | -0.0693
GTAAAGTA | 0.0862
CAAGTGTC | -0.0895
AACCAGAG | -0.123
CCAATGTA | -0.0965
GCACGACC | -0.0187
AGTTGGAT | 0.127
CGACATAC | 0.026
GCAGGATA | 0.0299
AGTTACAC | 0.125
GACGGCAC | -0.18
ATATAGAG | -0.0818
ACCTCCTA | -0.0455
CAGAATCG | 0.00203
ATTTATAC | 0.067
AATTGGCC | -0.13
GCCTTCCA | -0.281
TATCATGA | 0.189
GACCCGAC | 0.168
ACCTTATA | 0.0589
CCAAACGG | 0.00351
ACCTAGAA | -0.0713
CGTTACTC | 0.0257

Sequence | PBM E-score
CCGGTTAA | -0.24
CGCAGGTA | -0.0452
AGCCGGAC | 0.217
GGGGAGAA | -0.168
CGCCCCCC | -0.218
AACGATAG | -0.11
ATACGTTA | -0.112
CTAGCCCC | -0.145
ATCAGAGC | 0.0322
GCACTAGA | -0.219
CCTCGTGC | -0.0709
CCTCGGAA | -0.0541
CAAGCGAC | 0.0878
ACTCATAG | 0.264
GCTTAGCA | -0.214
GATGAACA | -0.0578
CTTGTTTC | -0.142
ATCTTCAT | 0.0461
ACCCTCTA | -0.0527
ACATGGAT | 0.113
AACTGCGT | 0.0502
CATCTTTA | -0.0551
AAAATTAT | -0.0112
ATAGTCCC | 0.0218
ATCCGGAA | 0.0341

Sequence | PBM E-score
AACGACAC | 0.105
GCGCGGCA | 0.122
TACCGTAA | -0.157
GCTATCGA | 0.0615
AAAGGGTC | -0.103
AGGGCACG | 0.00741
GTAGTCCA | -0.0646
CTCCTCAC | -0.192
CTCAATAA | -0.0777
AGTCCAAT | 0.0934
TCAACACA | 0.223
ATGCATCC | -0.152
GAATCCTA | -0.0164
CCTGCACA | -0.0959
ATGCATAA | -0.0382
CCCGGTAC | 0.00892
CTTGGTGC | -0.00556
CATTCATA | 0.267
ACCCTAAG | -0.114
TCTCTTCA | -0.283
AAAGCCTA | -0.115
CTCCCCAG | 0.0578
ATGTGTTA | 0.195
TAGGTGAA | 0.0656
CTAGGGCA | -0.233

Sequence | PBM E-score
AGTCTCGC | 0.131
AACGGCAA | -0.0038
GCGACCAA | 0.062
CGCGTAAA | -0.149
GTAGGAAC | 0.171
GAATACCA | 0.173
AAAGGGGC | -0.186
AAGCCGGG | 0.0382
TCCCTACA | -0.033
CGTTGTGA | -0.0231
CCTCTCAC | -0.175
CACAGAAA | 0.0843
CCCAAGTC | -0.0572
GACTATGA | 0.289
CGGCATAA | -0.0941
CTCAGGGC | 0.0201
CTGCCTCC | -0.0893
TTAACCAA | 0.163
GAAACGCA | 0.0152
ACCTTGGC | -0.017
CAAACATG | 0.0891
CTTGGTTC | 0.116
ACGTCGTC | -0.0867
CACAATAC | 0.17
AGCCAAAA | -0.165

Sequence | PBM E-score
AGTTCGTA | 0.00672
TGCGTCCA | -0.0845
CTTCCGCA | -0.0559
ACATATCA | 0.281
CTGGAAAG | -0.217
CGAGTGGC | -0.0443
CTATGGAA | -0.075
AAATTACC | 8e-05
AGAGTAGC | -0.055
GAGAAAAC | -0.139
AAAAAAAT | -0.0521
TGGTAACA | -0.089
GAAAACGA | -0.222
CTCAGAGC | -0.0272
ATAACCGG | -0.157
AGACTATG | 0.187
ATGAGTTC | 0.00071
GTATTATA | 0.254
AATATAGT | 0.2
ATATGAAA | -0.0688
ATAATTGG | -0.0899
TATCAGAA | -0.199
TCCGACCA | 0.117
CTGCAGTC | 0.0724
CAACACTA | 0.0341

Sequence | PBM E-score
AACACATT | 0.201
AGTTGTCG | 0.112
GAAATGGA | -0.142
ACTATGCT | 0.109
AACTCGGG | 0.0438
AGATGTCG | 0.0632
ACCCGCGA | 0.144
CATGGTCG | 0.105
GGCAACCC | 0.00021
AGGCGGCA | -0.101
CCTAAGAC | -0.0658
GAGCAGAA | -0.0939
CGCGCCTA | 0.00714
TGAGTAAA | 0.108
GGATAGGA | 0.0686
ACTTGGAT | -0.0661
ACAAGGCG | 0.0686
TCGCGCAA | 0.0709
TTAAATAA | -0.137
CGTGGAGC | 0.014
CAGGAATG | 0.0121
ATCCGTAA | -0.0459
GACGCAGA | 0.0137
GAGTTAAA | -0.103
GGAAGGAC | -0.0383

Sequence | PBM E-score
CATAGATG | -0.0858
GGAGAGCA | -0.131
GAGGGCGC | -0.118
ACCCACAC | 0.185
GGGCGCTA | -0.224
ATCCCAAG | -0.256
CGTCCAAG | -0.217
ATCTTATC | 0.0813
TGTCTAAA | -0.149
CCTGGGTC | 0.15
AGTTGATG | 0.0245
AAGTACAG | -0.194
ATCTGAAG | -0.111
AATCGTTC | -0.0435
AAATTGCT | -0.134
CGCAGCAA | -0.0193
AGAGGCTC | -0.191
CATTAATG | 0.226
ACGGGCAG | 0.146
CCACAGTA | 0.144
ATTTGTTA | 0.16
GAGATTAA | -0.0349
